We go through one compound from patent US12318477B2, “Injectable and inhalable formulations” (CYBIN UK LTD, priority 2021, dated 2025).

The data set in a line: Stability of Example 10 formulations after storage for 3 months (related substances). As to conditions: Example 10 formulation (25 mg/mL as free base, pH 6); 3 months storage at 40° C./75% RH.

In turn, `CN(C)CCc1c[nH]c2ccccc12.O=C(O)/C=C/C(=O)O` [SPL026, N,N-dimethyltryptamine (DMT) fumarate salt] yielded a total related substances of 0.35 % w/w.
